In PubChem BioAssay AID1963576 (National Center for Advancing Translational Sciences (NCATS), 2024):
About 60 (0.1%) of roughly 46,000 compounds were called active. About 3% were inconclusive and are not listed. Calls follow the shape of the dose curve; as a rule, active = well fitted inhibition curve with a large enough effect; inconclusive = small, poorly fitted or top-dose-only effect; inactive = no such curve, though single readings can be large or run the other way. Some of the results follow.

Assay: Primary qHTS assay for Inhibitors of ovarian cancer metastasis using an organotypic tumor microenvironment (TME) model. Also: nearly all actives have a fitted effect of over 65% in size.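 As to activity change, negative = inhibition: plate controls were DMSO wells for no effect and tomatine positive control wells for full effect.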
Details: SKOV3ip1-GFP adhesion/invasion on 3D omental model, fluorescence; series mostly up to 45.8 µM; activity change, negative = inhibition: at the top concentration
How it was run: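 Primary human omental fibroblast/mesothelial 3D culture pre-formed 48 h. SKOV3ip1-GFP cells added with compounds (0.36-46 umol/L), incubated 2 h RT/16 h 37 C, fixed; GFP cells quantified at 488/509 nm.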

Activity change, negative = inhibition, inactive:
O=C(CSc1nc(-c2ccccc2)no1)N1CCCCC1 -4.6%
O=C1CC(c2ccccc2)Cc2[nH]c(=O)c(C(=O)Nc3cccc(Cl)c3)cc21 (stereo unspecified) -23%
COC(=O)c1ccc(NC(=O)CN2CCN(c3ccc(Cl)cc3)CC2)cc1 2.84%
COc1ccc(NC(=O)c2cn(-c3ccccc3)nc2-c2ccc(C)cc2)cc1 2.79%
Cc1ccc(N(C)C(=O)C2CCN(S(=O)(=O)c3ccc4c(c3)CCCN4C(=O)C3CCC3)CC2)cc1 2.14%
CCOc1ccccc1-n1cc2c(c1-c1ccc(OC)cc1)c(=O)n(C)c(=O)n2C 16.8%
COc1ccc(NC(=O)c2ccc3c(c2)CCN3S(=O)(=O)c2ccc(C)cc2)cc1Cl 8.18%
CCCOC(=O)CSc1nnc2ccc3ccccc3n12 -11.8%
CN1CCCC(n2nc(Cc3ccc(Cl)cc3)c3ccccc3c2=O)CC1 (stereo unspecified) 1.1%
Cc1c(Cl)cccc1NC(=O)CN1C(=O)COc2ccc(S(=O)(=O)Nc3ccccc3)cc21 43.2%
COc1cc(NC(=O)CSc2nc3nc(C)c(Cc4ccc(C)cc4)c(C)n3n2)cc(OC)c1 -12.9%
CC(C)NS(=O)(=O)c1ccc2nc(NC(=O)c3cncc(Br)c3)sc2c1 1.85%
Clc1cccc(CNc2cc(-c3ccccc3)nc3nncn23)c1 -4.26%
OCCN1CCN(C(c2ccccc2Cl)c2sc3nc(-c4ccco4)nn3c2O)CC1 (stereo unspecified) -3.06%
Cc1cccc(N2C(=O)CS(=O)(=O)C23C(=O)N(Cc2c(F)cccc2Cl)c2ccccc23)c1 (stereo unspecified) 4.66%
Cc1cccc(N2CCn3c2nc2c3c(=O)n(CCc3ccccc3)c(=O)n2C)c1 0.642%
CC(C)N1C(=O)C(O)(c2c[nH]c3ccccc23)c2ccccc21 (stereo unspecified) -23.3%
COc1cccc(-c2cn3c(n2)sc2cc(C(=O)NCCc4ccc(OC)c(OC)c4)ccc23)c1 -3.2%
CCCS(=O)(=O)N1CC(=O)N(c2cc(C)ccc2C)C(C)(C(=O)NC2CCCCCC2)C1 (stereo unspecified) -4.96%
Cc1ccc2onc(CNC(=O)NCc3cccc(Cl)c3)c2c1 4.87%
CCOc1ccc(OCC)c(NC(=O)CC(C)n2nc(C)cc2C)c1 (stereo unspecified) -1.24%
O=C(O)CCCNc1cc(N2CCN(C3CCCCC3)CC2)c2noc3c2c1C(=O)c1ccccc1-3 0.49%
CCOc1ccc(-c2cc(C(=O)Nc3ccc(NC(C)=O)cc3)no2)cc1 -7.02%
Cc1cc(N)c(-n2cc3c(c2-c2ccc(Br)cc2)c(=O)n(C)c(=O)n3C)cc1C 185%
Cc1cc(C)cc(Oc2coc3cc(OCC(=O)NC4CCCCC4)ccc3c2=O)c1 -6.36%
CCOc1ccc(-n2nc(CO)c(C(=O)NCCCc3ccccc3)n2)cc1 -4.76%
CC(=O)Nc1ccc(S(=O)(=O)N2CCC(c3nnnn3-c3ccccc3)CC2)cc1 34.8%
Cc1ccc(/C=N/NC(=O)c2ccccc2Oc2ccccc2)o1 5.47%
Cc1ccc(CN(C(=O)c2ccccc2F)c2ccccn2)o1 12%
O=C(c1cccn2c(=O)c3cc(Cl)ccc3nc12)N1CCN(c2ccccc2F)CC1 1.97%
Nc1nonc1-c1nc2ccccc2n1Cc1cccc(Cl)c1 -0.933%
CCOc1ccc(NC(=O)CC2C(=O)N(c3ccc(C)cc3)C(=O)N2CCC2=CCCCC2)cc1 (stereo unspecified) -17.9%
COc1ccc(CCNC(=O)c2c(O)nc3ccccn3c2=O)cc1 11.7%
CCOC(=O)c1ccccc1NC(=O)CSc1nc(=O)[nH]c2c1CCC2 9.8%
CCOc1ccc(C(=O)Nc2cccc(C(=O)OCc3cc(=O)n4nc(C5CC5)sc4n3)c2)cc1 0.649%
COc1ccc(Cl)cc1NC(=O)Cn1cc(C(=O)c2ccc(C)cc2)c(=O)c2ccc(C)nc21 2.7%
Cc1ccc(NC(=O)CCSc2nc(-c3ccco3)cc(C(F)(F)F)n2)cc1F 3.99%
COc1ccc2oc(=O)c(C(=O)Nc3ccc(C(=O)O)cc3)cc2c1 6.32%
Cc1ccn2c(=O)c(C(=O)NCCCN3CCCCC3C)c(O)nc2c1 (stereo unspecified) -8.3%
FC(F)(F)Oc1ccc2c(c1)NC(c1ccncc1)=NC(c1cccs1)=N2 3.25%
O=C(COc1ccc(Cl)cc1)Nc1ccc(C(=O)OCc2cc(=O)n3ccsc3n2)cc1 6.74%
C=Cc1ccc(Cn2c(C)c(CNCCc3ccccc3C)c(C(=O)O)c2C)cc1 -15.3%
CCOC(=O)N1CCN(Cc2nc3cc(NC(=O)c4ccc(OC)cc4)ccc3n2C(C)C)CC1 -17.1%
COc1ccc(OCC(=O)Nc2nnc3n2CCS3)cc1 -4.18%
CC(=O)c1ccc(NC(=O)CCCSc2nc(-c3ccco3)cc(C(F)(F)F)n2)cc1 -17.1%
CCc1ccc(NC(=O)CSc2nc3ccccc3c(=O)n2CCNC(C)=O)cc1 -3.62%
Cc1ccc(NC(=O)C(C)n2nnc3sc4c(c3c2=O)CCCC4)cc1Cl (stereo unspecified) -7.32%
C=CC[N+]1([C@H]2C[C@H]3[C@@H]4CC[C@H]5C[C@H](O)[C@@H](N6CCOCC6)C[C@]5(C)[C@@H]4CC[C@]3(C)[C@H]2OC(C)=O)CCCC1 -14.1%
Cc1c(Cl)cccc1NC(=O)c1ncoc1-c1ccco1 -8.08%
COc1ccccc1NC(=O)CCN1CCCCC1 -6%
CCOc1ccc(OCC)c(NC(=O)C2CCN(c3nnc(-n4cccc4)s3)CC2)c1 -7.53%
CCOC(=O)c1cccc(Nc2cc(-c3ccccc3)ncn2)c1 -8.7%
Cc1ccc(C(C)(O)c2nc3ccccc3s2)c(C)c1 (stereo unspecified) -21.3%
CCOC(=O)c1c(C)[nH]c(CCC(=O)NCc2ccccc2Cl)c1C -30%
Cc1c(Cl)cccc1NC(=O)c1ccc2snnc2c1 0.597%
Cc1cccc(C(=O)NCC(=O)OCc2cc(=O)n3nc(C4CCCCC4)sc3n2)c1 4.1%
Cc1cccc(N2CCN(S(=O)(=O)c3ccc4[nH]c5c(c4c3)CCCCC5)CC2)c1C -7.22%
CCOC(=O)c1cccc(NC(=O)CC2C(=O)N(c3ccc(OC)cc3)C(=O)N2C2CCCC2)c1 (stereo unspecified) 3.58%
COc1ccc(NC(=O)CCCN2C(=O)CCn3nc(-c4cn(C)c5ccccc45)cc32)cc1OC 6.25%
Cc1ccc(N(C)C(=O)C2CCN(S(=O)(=O)c3c(C)noc3/C=C/c3c(C)cc(C)cc3C)CC2)cc1 -9.34%
CCN(CC)C(=O)Cn1nnc2sc(-c3ccccc3)cc2c1=O 0.317%
COc1cc2c(cc1OC)C(COc1ccc3c(C)cc(=O)oc3c1)N(C(=O)c1cc(Cl)ccc1OC)CC2 (stereo unspecified) 2.86%
CCC(=O)N1c2ccc(S(=O)(=O)NCc3ccc(F)cc3)cc2CC1C (stereo unspecified) -4.13%
Cc1ccc(CN2CCSc3ccc(C(=O)NCC(C)c4ccccc4)cc32)cc1 (stereo unspecified) -21.3%
COc1cccc(NC(=O)C2=C(C)C(=O)OC23CCN(C(C)=O)CC3)c1 17.5%
COc1ccccc1C(=O)Nc1cc2c(cc1N1CCCC1)n(C)c(=O)c(=O)n2C 11.3%
Cc1ccc(Cn2cc(S(=O)(=O)c3cccc(Cl)c3)c(=O)c3cc(F)c(N4CCOCC4)cc32)cc1 36.7%
CCOc1ccc(C2NC(=O)c3c(COC)cc(C)nc3N2Cc2ccccc2)cc1OC (stereo unspecified) 8.83%
Cc1ccc(NC(=O)Cn2ccn(-c3ccccc3)c(=O)c2=O)cc1 -2.72%
Cc1cc2oc(C(=O)Nc3ccc(S(=O)(=O)Nc4ncccn4)cc3)cc(=O)c2cc1C 1.74%
CCCOc1ccc(CNC(=O)c2ccc(-n3c(C)cc4c3CCC(C)C4)cc2)cc1 (stereo unspecified) 2.22%
COc1ccccc1-c1noc(CCC(=O)Nc2ccc(C)cc2C)n1 15.6%
CC1CCC(Nc2nc3c(-c4cccc(C(F)(F)F)c4)nnn3c3ccccc23)CC1 (stereo unspecified) 8.04%
CC(C)OC(=O)c1c(NC(=O)C2c3ccccc3Oc3ccccc32)sc2c1CCCC2 -5.2%
O=C(Nc1cc2c(cc1C(=O)c1ccccc1Cl)OCCO2)c1ccccc1 -1.27%
CN(C)c1ccc(CNC(=O)c2ccccc2NC(=O)c2nsc3ccccc23)cc1 -15.9%
CC1Cc2ccccc2N1C(=O)CSc1nnc(-c2ccccc2Cl)o1 (stereo unspecified) -1.47%

outcome, inactive:
Cc1ccccc1-c1nn2c(=O)cc(CN3CCN(C(=O)c4ccc(C(C)(C)C)cc4)CC3)nc2s1
CCOC(=O)c1cccc(NC(=O)C(C)n2c(C)c3cnn(-c4ccccc4)c(=O)c3c2C)c1 (stereo unspecified)
CCCSCCCNC(=O)c1ccc(Cn2c(=O)c3cccn3c3cccnc32)cc1
COc1ccc(Cl)cc1NC(=O)CCc1c(C)nc2c(c1C)c(=O)n(C)c(=O)n2C
Cc1ccc(NC(=O)CN(C)S(=O)(=O)c2ccc3nc(C)sc3c2)c(C)c1
CCc1ccccc1NC(=O)Cn1nc(C(F)(F)F)c2c1CCCC2
Cc1cc(C)c(NC(=O)CCn2c(=O)c3cccn3c3cccnc32)c(C)c1
N#CC1=C(N)N(c2cccc(Cl)c2)C2=C(C(=O)CCC2)C1c1cc(CN2CCOCC2)cs1 (stereo unspecified)
CC(C)c1ccc(NC(=O)c2ccc(F)c(S(=O)(=O)N3CCc4ccccc4C3)c2)cc1
Cc1nc(-c2ccccc2)sc1CCNC(=O)C(=O)Nc1ccc2c(c1)OCO2
COc1cccc(OCCSc2nc(C)c(Cc3ccccc3)c(=O)[nH]2)c1
COC(=O)CN1C(=O)CSc2ccc(S(=O)(=O)Nc3cccc(C)c3C)cc21
CCN(C(=O)CSc1nc2ccccc2[nH]1)c1ccccc1
Cc1ccc(NC(=O)C2CCCN(S(=O)(=O)c3cn(C(C)C)cn3)C2)c(C)c1 (stereo unspecified)
Cc1ccc(C)c(N2CCN(C(=O)c3ccc4c(c3)N(Cc3ccc(F)cc3)C(=O)c3ccccc3S4=O)CC2)c1 (stereo unspecified)
COc1cc(OC)c(NC(=O)CCc2c(C)nc3cc(-c4ccccc4OC)nn3c2C)cc1Cl
CC(C)c1nn2c(=O)cc(COC(=O)c3ccccc3NC(=O)C3CCCCC3)nc2s1
CCc1ccc2oc(C(=O)Nc3cc(C)ccc3C)cc(=O)c2c1
CC(=O)c1ccc(Nc2cc(C)nc3nc(Cc4ccc(Cl)cc4)nn23)cc1
